This is one part of the list. At the low end of the ranking the order means little.
biological target: SIX1-Q177R homeodomain (UniProt Q15475); experiment: universal protein binding microarray; settings: Universal all-10-mer PBM (8x60K, AMADID 030236), 300 nM GST-tagged protein, Alexa Fluor 488 anti-GST; buffer, salt, pH and temperature not stated; high values mean tight binding; most listed sequences are background and not binding sites; double strand, one strand shown

Row | Sequence | binding signal [E-score]
1 | ACACGTTG | 0.331
2 | AGCAAGTG | 0.0833
3 | AACTAATC | -0.00173
4 | ATAGGGTC | 0.136
5 | CCGCTTCA | 0.0414
6 | ATCTGAAA | -0.128
7 | ACATTGAG | -0.0886
8 | CTTATCAC | 0.0462
9 | CCCCTTCC | 0.135
10 | CTACTAAG | 0.0576
11 | CCACTTAC | 0.0867
12 | CAACTAGG | 0.00268
13 | CCCCAGCA | 0.0306
14 | TAACGAGA | -0.221
15 | ACCTTTTG | 0.00653
16 | GAATCTGC | -0.0906
17 | CTCCAAAA | -0.0483
18 | AACCGTCA | -0.0735
19 | TCCTGAAA | -0.159
20 | CGAGTACA | 0.28
21 | ACTTCTCA | -0.216
22 | ACGGATGG | -0.0241
23 | CAGGTGAC | 0.118
24 | TGGCGGAA | -0.129
25 | CCTCACTA | -0.094

Row | Sequence | binding signal [E-score]
26 | CCCAACCC | 0.128
27 | TCCGGTCA | 0.11
28 | AAAATAGA | -0.0638
29 | AGACGAGC | -0.199
30 | TCTGAGCA | -0.266
31 | ATTCAGGG | 0.0674
32 | AGACCACT | -0.179
33 | AAAAGATT | -0.195
34 | AGGTAACC | 0.063
35 | AGCTCTAC | 0.00291
36 | ACAATTTC | -0.0215
37 | TGCCTACA | 0.00911
38 | GATGTGGA | 0.0831
39 | CCGTCTCA | -0.0294
40 | ACGTAAGC | -0.127
41 | TGAGGGCA | -0.135
42 | CGTGTCAA | 0.409
43 | AGCTGATC | -0.0146
44 | CGTTTGTC | 0.0904
45 | ATATCGCG | -0.189
46 | GGCCAGCC | -0.202
47 | ACTGGCGC | 0.00477
48 | CTTAGCTA | -0.332
49 | ACAGCCGG | -0.0475
50 | CAATAAAA | -0.0532

Row | Sequence | binding signal [E-score]
51 | ACTGCCAT | -0.213
52 | ACTCTGCA | 0.101
53 | GTTCGGGA | 0.15
54 | AGGATGCG | -0.236
55 | CGGTCTCC | 0.0699
56 | AAACACCA | 0.454
57 | ACGTTTGA | -0.0774
58 | CGGGCTGA | -0.155
59 | GTCTTCAC | -0.0354
60 | CCCAGACA | 0.16
61 | ATTTGATA | -0.132
62 | AGGTAATA | -0.0574
63 | CCCGACGG | 0.0821
64 | GATTGACA | 0.0651
65 | AAGCAAAC | -0.187
66 | TACGATAA | -0.074
67 | ACCGCCGC | 0.0147
68 | AACCCACC | 0.194
69 | AGGGGCAG | -0.0321
70 | GGCGGAAC | -0.0827
71 | CCGGATAC | 0.262
72 | GCGAAGGA | -0.00445
73 | CCTTTGAG | 0.21
74 | CGCATAAG | -0.216
75 | ATAAGGCA | -0.107

Row | Sequence | binding signal [E-score]
76 | AGTAGACG | -0.0562
77 | CGTTAGTC | 0.0541
78 | CTAAAAAC | -0.184
79 | GTGCCACA | 0.0784
80 | CATCTAAA | -0.204
81 | GACGGTAA | -0.0789
82 | TAATGTAA | 0.0321
83 | CGTTACGC | -0.145
84 | GTTCAAAC | 0.0727
85 | ATTTGCTA | -0.11
86 | AATTAAAA | -0.144
87 | ATTATGGG | 0.0818
88 | CACGCACC | 0.344
89 | GCATGTTA | -0.205
90 | AGCGTTAT | 0.108
91 | GCCGTATA | -0.0667
92 | CCACATGA | -0.163
93 | TTGTACAA | -0.106
94 | CGGTACAC | 0.435
95 | GCGTAGCA | -0.0833
96 | TGCCTCAA | 0.0352
97 | CACATCAC | -0.0442
98 | AGTCTGGA | -0.0731
99 | CGCAACTA | -0.136
100 | CATCCTAA | -0.298

Row | Sequence | binding signal [E-score]
101 | ACGCTGCA | 0.00161
102 | AACCTTAA | -0.169
103 | ACGAGAGG | -0.152
104 | TCATCCAA | 0.068
105 | GCGCGGGA | 0.122
106 | TCCAGTCA | -0.114
107 | TCGTCAGA | -0.016
108 | TGACGGCA | -0.248
109 | GATTACAC | 0.451
110 | GCATAAGA | -0.125
111 | AGCTCGGG | 0.0662
112 | CCAAACTC | -0.0893
113 | ACACGCCC | 0.422
114 | CGTACCGA | -0.198
115 | AAGGTGAC | 0.112
116 | ATCTCCCG | 0.0129
117 | TAGGGGAA | -0.0545
118 | GAGACGGA | -0.0971
119 | GGTGATTA | -0.0502
120 | AATAAGGA | -0.141
121 | GCATCAGA | 0.188
122 | GCCAAGGA | -0.018
123 | ATCAACGG | -0.136
124 | CACCCCGA | 0.346
125 | ACTTAGGC | -0.171

Row | Sequence | binding signal [E-score]
126 | ACCTGTTC | -0.0245
127 | ACGGACGA | -0.14
128 | CAGAGGCC | -0.167
129 | CGGAGTAG | 0.127
130 | ACCTTTTC | -0.165
131 | ATGATGAG | -0.257
132 | GTCATTCA | -0.0203
133 | GGCGGACA | 0.111
134 | CATTAGTC | -0.0518
135 | CCTGAGAA | -0.0446
136 | GCTTATAC | -0.165
137 | GCATCGGC | -0.0433
138 | TAATCAAA | 0.0343
139 | CCGATGAC | 0.0812
140 | GACGATCC | 0.12
141 | ACGCACGA | 0.277
142 | AGCTATAT | -0.261
143 | GTCTTCGA | -0.0605
144 | ATCGCAGC | -0.0827
145 | GTGGGGAA | -0.05
146 | CTTCTACC | 0.203
147 | TCGAACAA | -0.172
148 | AACAGATA | -0.098
149 | GAGCAAAC | -0.213
150 | CGGAAGCA | -0.0472

Row | Sequence | binding signal [E-score]
151 | CAGCCATG | -0.0842
152 | TATTCCCA | -0.167
153 | CCGGTGAG | 0.0307
154 | CGGGGGAC | 0.113
155 | GATCGTTA | -0.0888
156 | CGTGCGAA | -0.0273
157 | ACAGTAAT | -0.0603
158 | ATACCCAT | 0.132
159 | GCGGTAGA | -0.0852
160 | AACGATCC | -0.00388
161 | CGCCAAGC | -0.178
162 | AAGTATAG | -0.31
163 | CCCTAGAC | 0.064
164 | TGAAGGCA | -0.115
165 | TGACCAAA | -0.2
166 | ACCCACAT | 0.0969
167 | CTAAACGA | -0.0511
168 | CGTTGACA | 0.231
169 | CCCTTAGC | -0.0905
170 | CAATGTGG | 0.0263
171 | AGTCTCCG | -0.174
172 | CCGTCATC | -0.162

— PMC10668032
